# Results published in PubChem BioAssay (Tox21).
# Several values for one entry are separate records, joined by “and”; a condition that tells them apart may be missing. Identical values can stand only once. Inconclusive results, whose numbers are uncertain, are shown with a selection of clear calls. For part of these data: Where the call is inconclusive, the potency comes from a doubtful curve fit. Some structures have more than one record in an assay (separate samples or runs), and their calls can disagree. Activity calls are given as the source filed them. Unless noted, calls follow the shape of the dose curve; as a rule, active = well fitted curve in the direction sought with a large enough effect in the repeat runs; inconclusive = weak or mixed curves; inactive = no such curve, though single readings can be large; an effect the other way counts as inactive or inconclusive.
# Tests used:
# [1] = qHTS assay to identify small molecule HDAC inhibitors - cell viability counter screen (AID 1259365); also: nearly all actives have a fitted effect of over 50% in size
# Method in brief: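 Viability readout: CellTiter-Glo luminescence. Wild-type HCT-116 cells, 2hr compound treatment following overnight attachment at 37 C.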
# [2] = qHTS assay to identify small molecule antagonists of the sonic hedgehog signaling (Shh) pathway (AID 1259369; calls by dose curve; also: nearly all actives have a fitted effect of over 45% in size)
# Method in brief: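 Screening used 3T3Gli1-Luc cells at 2,000 per well, compounds delivered in DMSO, and conditioned medium as agonist stimulus; plates incubated 24hr at 37 C and 5% CO2 before a 30min luciferase step.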
# [3] = target: Estrogen receptor beta (Homo sapiens) (UniProt Q92731); assay: qHTS assay to identify small molecule antagonists of the estrogen receptor beta (ER-beta) signaling pathway (AID 1259378; active = well fitted inhibition curve with a large enough effect in the signal ratio in the repeat runs, not every such curve was filed as active; inconclusive = weak or mixed curves, or effect the other way; inactive = no such curve, though single readings can be large or run the other way; the % refers to the signal ratio; as to activity, negative = inhibition: % is scaled to controls: 0 for no effect and ±100 for the full control effect); details: ER-beta-UAS-bla HEK293T, beta-lactamase FRET ratio, 16 h; activity, negative = inhibition: at 92.4 µM (top of the series) unless noted
# Sequence of UniProt Q92731 (Q92731 whole entry, looked up): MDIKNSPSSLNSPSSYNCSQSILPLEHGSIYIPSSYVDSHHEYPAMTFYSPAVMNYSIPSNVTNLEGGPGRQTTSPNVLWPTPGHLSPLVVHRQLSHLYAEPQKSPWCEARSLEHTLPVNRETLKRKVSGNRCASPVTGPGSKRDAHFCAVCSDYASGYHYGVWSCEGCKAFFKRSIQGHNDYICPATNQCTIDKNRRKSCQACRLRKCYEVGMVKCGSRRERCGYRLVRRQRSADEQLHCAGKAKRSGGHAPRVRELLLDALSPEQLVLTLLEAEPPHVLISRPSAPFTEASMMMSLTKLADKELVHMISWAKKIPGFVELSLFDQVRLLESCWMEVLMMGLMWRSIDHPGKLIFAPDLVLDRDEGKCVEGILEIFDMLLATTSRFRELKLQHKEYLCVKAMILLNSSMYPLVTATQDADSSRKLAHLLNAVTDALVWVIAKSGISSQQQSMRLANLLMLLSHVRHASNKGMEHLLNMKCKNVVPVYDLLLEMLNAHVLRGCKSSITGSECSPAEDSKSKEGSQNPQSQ
# Method in brief: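 Antagonist mode: compounds added to beta-lactamase reporter HEK293T ER-beta-UAS cells stimulated with E2 (1nM final), 16 hr at 37C. LiveBLAzer B/G FRET substrate, 2 hours room temperature, fluorescence read-out.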
# [4] = qHTS assay to identify small molecule agonists of the androgen receptor (AR) signaling pathway in the presence of an antagonist - cell viability counter screen (AID 1259379); also: nearly all actives have a fitted effect of over 25% in size
# Method in brief: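 In MDA-kb2 cells (human breast carcinoma, MMTV-luciferase), compounds at 15 concentrations plus 3.0uM nilutamide; 16 hr, 37C, 0% CO2; CellTiter-Fluor fluorescence read for viability.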
# [5] = qHTS assay to identify small molecule agonists of the estrogen receptor beta (ER-beta) signaling pathway - cell viability counter screen (AID 1259380); also: nearly all actives have a fitted effect of over 30% in size
# Method in brief: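 Viability of ER-beta-UAS-bla HEK293T cells was determined by CellTiter-Glo luminescence following 16 hr treatment with test compounds at 37C.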
# [6] = target: Thyrotropin receptor (Homo sapiens) (UniProt P16473); assay: qHTS assay to identify small molecule antagonists of the thyroid stimulating hormone receptor (TSHR) signaling pathway (AID 1259385; calls by dose curve; also: nearly all actives have a fitted effect of over 20% in size; as to activity change, negative = inhibition: % is scaled to controls: 0 for no effect and ±100 for the full control effect); details: TSHR-HEK293 cAMP HTRF, TSH-stimulated antagonist mode; activity change, negative = inhibition: at 92.4 µM (top of the series) unless noted
# Sequence of UniProt P16473 (P16473 whole entry, looked up): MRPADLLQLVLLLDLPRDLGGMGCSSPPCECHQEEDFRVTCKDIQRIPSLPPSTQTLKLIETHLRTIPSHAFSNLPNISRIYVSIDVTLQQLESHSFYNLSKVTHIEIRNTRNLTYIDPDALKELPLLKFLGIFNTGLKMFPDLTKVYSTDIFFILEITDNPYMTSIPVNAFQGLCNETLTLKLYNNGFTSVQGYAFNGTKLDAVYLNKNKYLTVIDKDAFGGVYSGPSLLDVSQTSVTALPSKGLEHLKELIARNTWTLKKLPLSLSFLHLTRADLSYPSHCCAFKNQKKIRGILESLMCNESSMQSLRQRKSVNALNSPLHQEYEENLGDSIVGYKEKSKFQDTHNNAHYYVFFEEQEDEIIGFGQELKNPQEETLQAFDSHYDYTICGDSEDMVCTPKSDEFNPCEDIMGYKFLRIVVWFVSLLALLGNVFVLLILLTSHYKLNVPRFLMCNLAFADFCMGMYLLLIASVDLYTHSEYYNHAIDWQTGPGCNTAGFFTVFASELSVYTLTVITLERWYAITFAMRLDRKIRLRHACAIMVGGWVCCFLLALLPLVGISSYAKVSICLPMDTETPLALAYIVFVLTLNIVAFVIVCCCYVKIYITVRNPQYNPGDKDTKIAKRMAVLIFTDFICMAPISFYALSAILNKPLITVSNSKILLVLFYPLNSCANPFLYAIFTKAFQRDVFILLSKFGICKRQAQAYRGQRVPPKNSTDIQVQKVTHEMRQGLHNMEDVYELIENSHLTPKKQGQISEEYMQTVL
# Method in brief: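 Antagonist mode: compound-treated TSHR-expressing HEK293 cells were stimulated with 1.5 ng/mL TSH (final) in presence of Ro20-1724 for 30 min at RT. HTRF cAMP detection after 1 h; each compound tested at 15 concentrations, triplicate.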
# [7] = qHTS assay to identify small molecule agonists of the estrogen receptor alpha (ER-alpha) signaling pathway in the presence of an antagonist - cell viability counter screen (AID 1259386);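 also: cells exposed to compounds for 22 h at 37 °C before the viability read; nearly all actives have a fitted effect of over 30% in size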
# Method in brief: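 Fluorescent CellTiter-Fluor viability signal from VM7Luc4E2 cells, with the reagent added during the final hour of a 22hr compound exposure at 37C in the presence of 10.0nM ICI-182,780.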
# [8] = target: Progesterone receptor (Homo sapiens) (UniProt P06401); assay: qHTS assay to identify small molecule agonists of the progesterone receptor (PR) signaling pathway (AID 1346784; calls by dose curve; also: nearly all actives have a fitted effect of over 30% in size; as to activation: % is scaled to controls: 0 for no effect and ±100 for the full control effect); details: PR-UAS-bla HEK293T, beta-lactamase FRET ratio, 16 h; activation: at 92.4 µM (top of the series) unless noted
# Sequence of UniProt P06401 (P06401 whole entry, looked up): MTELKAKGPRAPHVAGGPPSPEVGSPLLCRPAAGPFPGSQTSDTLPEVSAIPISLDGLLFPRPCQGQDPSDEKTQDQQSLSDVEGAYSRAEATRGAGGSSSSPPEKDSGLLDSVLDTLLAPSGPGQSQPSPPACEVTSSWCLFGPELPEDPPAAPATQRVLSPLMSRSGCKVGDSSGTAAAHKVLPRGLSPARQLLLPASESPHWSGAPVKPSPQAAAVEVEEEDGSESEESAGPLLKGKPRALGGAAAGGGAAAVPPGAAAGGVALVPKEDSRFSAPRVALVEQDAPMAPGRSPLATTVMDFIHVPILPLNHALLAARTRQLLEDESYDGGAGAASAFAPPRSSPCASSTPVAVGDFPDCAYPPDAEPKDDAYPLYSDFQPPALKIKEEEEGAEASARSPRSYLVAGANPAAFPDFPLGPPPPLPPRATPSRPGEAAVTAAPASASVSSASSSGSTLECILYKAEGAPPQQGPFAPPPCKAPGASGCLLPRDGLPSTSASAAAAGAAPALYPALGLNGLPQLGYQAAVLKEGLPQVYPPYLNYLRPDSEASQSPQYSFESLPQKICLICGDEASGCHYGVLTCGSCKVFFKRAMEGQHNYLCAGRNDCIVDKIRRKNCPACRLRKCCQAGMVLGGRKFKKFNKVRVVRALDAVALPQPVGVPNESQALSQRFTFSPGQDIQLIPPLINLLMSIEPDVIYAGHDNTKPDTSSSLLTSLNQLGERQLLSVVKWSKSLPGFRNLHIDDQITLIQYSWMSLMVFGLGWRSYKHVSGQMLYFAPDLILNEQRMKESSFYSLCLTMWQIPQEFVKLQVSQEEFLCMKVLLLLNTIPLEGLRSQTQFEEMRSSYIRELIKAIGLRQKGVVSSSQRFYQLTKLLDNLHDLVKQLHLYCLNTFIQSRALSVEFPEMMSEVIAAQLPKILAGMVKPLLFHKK
# Method in brief: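 Agonist mode, quantitative HTS format in a HEK 293T line expressing a UAS-controlled beta-lactamase reporter; 16 hr compound exposure at 37C in 2% charcoal-stripped FBS, then LiveBLAzer B/G FRET fluorescence.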
# [9] = qHTS assay to identify small molecule antagonists of the progesterone receptor (PR) signaling pathway - cell viability counter screen (AID 1346798); also: nearly all actives have a fitted effect of over 50% in size
# Method in brief: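 Same-well multiplex: after 16 hr at 37C with compound and R5020 stimulation, HEK293T cells carrying a UAS-bla reporter received LiveBLAzer substrate (2 hr RT), then CellTiter-Glo (30 min RT) for luminescent viability.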
# [10] = qHTS assay to identify small molecule agonists of the sonic hedgehog signaling (Shh) pathway - cell viability counter screen (AID 1259366); also: nearly all actives have a fitted effect of over 50% in size
# Method in brief: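 Viability measured fluorometrically (CellTiter-Fluor, 1hr, 37C) in 3T3 Gli1-Luc reporter cells after 23hr compound exposure within a 24hr incubation at 37C/5% CO2.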
# [11] = qHTS assay to identify small molecule antagonists of the estrogen receptor beta (ER-beta) signaling pathway - cell viability counter screen (AID 1259382); also: nearly all actives have a fitted effect of over 55% in size
# Method in brief: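 Tox21 10K library tested in qHTS format on ER-beta-bla HEK293T cells stimulated with 1nM E2; 16 hr treatment at 37C. Same-well CellTiter-Glo luminescence served as the cell viability measure.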
# [12] = qHTS assay to identify small molecule agonists of the progesterone receptor (PR) signaling pathway - cell viability counter screen (AID 1346799; calls by dose curve; also: nearly all actives have a fitted effect of over 45% in size)
# Method in brief: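 Counter screen for cytotoxicity: compound-treated PR-UAS-bla HEK293T cells (16 hr, 37C, 5% CO2) were assayed with CellTiter-Glo, luminescence measured after 30 min at room temperature.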
# [13] = qHTS assay to identify small molecule antagonists of the TGF-beta/Smad signaling pathway - cell viability counter screen (AID 1346824); also: nearly all actives have a fitted effect of over 50% in size
# Method in brief: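 Cytotoxicity counter-screen run in the same wells as the beta-lactamase Smad reporter read: CellTiter-Glo luminescence after 30 min at room temperature. HEK 293T SBE-bla cells had 5 hr compound exposure at 37 C with TGF-beta1 (0.25 ng/mL stock).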
# [14] = target: Estrogen receptor beta (Homo sapiens) (UniProt Q92731); assay: qHTS assay to identify small molecule agonists of the estrogen receptor beta (ER-beta) signaling pathway (AID 1259377; active = well fitted activation curve with a large enough effect in the signal ratio in the repeat runs, not every such curve was filed as active; inconclusive = weak or mixed curves, or effect the other way; the % refers to the signal ratio); details: ER-beta-UAS-bla HEK293T, beta-lactamase FRET ratio, 16 h; activation: at 92.4 µM (top of the series) unless noted
# Method in brief: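 A UAS-controlled beta-lactamase reporter in ER-beta-UAS-bla HEK293T cells reports receptor activation. Compounds act for 16 hr at 37C in 2% charcoal-stripped serum, and a FRET substrate is read by fluorescence after 2 hours.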
# [15] = target: Progesterone receptor (Homo sapiens) (UniProt P06401); assay: qHTS assay to identify small molecule antagonists of the progesterone receptor (PR) signaling pathway (AID 1346795; active = well fitted inhibition curve with a large enough effect in the signal ratio in the repeat runs, not every such curve was filed as active; inconclusive = weak or mixed curves; the % refers to the signal ratio; as to activity change, negative = inhibition: % is scaled to controls: 0 for no effect and ±100 for the full control effect); details: PR-UAS-bla HEK293T, beta-lactamase FRET ratio, 16 h; activity change, negative = inhibition: at 92.4 µM (top of the series) unless noted
# Method in brief: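 HEK293T PR-UAS-bla reporter cells in charcoal-stripped serum (2%) received compound after a 6 hr settling period, followed by R5020 agonist at 1 nM final; 16 hr incubation preceded the FRET substrate step and fluorescence measurement.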
# [16] = qHTS assay to identify small molecule HDAC inhibitors (AID 1259364); also: nearly all actives have a fitted effect of over 45% in size
# Method in brief: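 Endogenous HDAC class I/II activity was measured in wild-type HCT-116 cells by HDAC-Glo luminescence after 2 h compound treatment.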
# [17] = target: Estrogen receptor (Homo sapiens) (UniProt P03372); assay: qHTS assay to identify small molecule agonists of the estrogen receptor alpha (ER-alpha) signaling pathway in the presence of an antagonist (AID 1259383; calls by dose curve; also: nearly all actives have a fitted effect of over 15% in size)
# Sequence of UniProt P03372 (P03372 whole entry, looked up): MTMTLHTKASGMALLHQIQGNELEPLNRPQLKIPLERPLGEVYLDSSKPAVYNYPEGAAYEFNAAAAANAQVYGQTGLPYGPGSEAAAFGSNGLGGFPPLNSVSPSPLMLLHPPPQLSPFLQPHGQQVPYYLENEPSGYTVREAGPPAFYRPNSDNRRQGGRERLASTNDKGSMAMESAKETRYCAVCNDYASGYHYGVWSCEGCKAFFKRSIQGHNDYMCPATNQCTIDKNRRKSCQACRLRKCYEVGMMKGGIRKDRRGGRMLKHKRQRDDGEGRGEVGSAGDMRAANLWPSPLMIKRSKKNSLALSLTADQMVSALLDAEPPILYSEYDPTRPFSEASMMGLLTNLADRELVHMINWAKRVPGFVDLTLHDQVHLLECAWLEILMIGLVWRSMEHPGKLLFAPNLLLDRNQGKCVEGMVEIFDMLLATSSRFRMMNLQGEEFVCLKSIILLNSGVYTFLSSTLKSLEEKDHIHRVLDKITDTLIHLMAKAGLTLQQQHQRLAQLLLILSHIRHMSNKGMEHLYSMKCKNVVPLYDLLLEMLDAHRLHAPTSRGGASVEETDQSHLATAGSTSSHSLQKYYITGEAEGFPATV
# Method in brief: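 In VM7Luc4E2 cells, 4,000 per well, compounds at 15 concentrations were co-incubated 22hr at 37C with 10.0nM final ICI-182,780. Luminescence from the stably transfected 4×ERE-luciferase reporter was recorded 30min after ONE-Glo addition.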
# Potency is read from the fitted curve at half-maximal effect; tags tell the direction and shape of the fitted curve or compound fluorescence and quenching.
structure (smiles),measurement,setting,value
Nc1ccc(N=Nc2ccc(-c3ccc(N=Nc4c(S(=O)(=O)O)cc5cc(S(=O)(=O)O)c(N=Nc6ccccc6)c(O)c5c4N)cc3)cc2)c(N)c1,Potency,[1],active: 17.6 µM
same,Potency,[2],"inconclusive: 44.2 µM [inhibitor, single point]"
same,"activity, negative = inhibition",[3],inconclusive: -31.1% [at 42.5 µM]
same,Potency,[4],active: 17.6 µM
same,Potency,[5],"inconclusive: 35.1 µM [cytotoxic, partial curve, poor fit]"
same,Potency,[6],"inconclusive: 14 µM [falling, partial curve]"
same,Potency,[7],active: 15.7 µM
same,Potency,[8],inactive
same,Potency,[9],inactive
CCCCCCCCCCCCCCCC[n+]1ccccc1,Potency,[1],"inconclusive: 71.7 µM [cytotoxic] and inconclusive: 68.6 µM [cytotoxic, single point]"
same,Potency,[10],active: 60.3 µM [middle of 4 runs]
same,Potency,[2],"inconclusive: 23.7 µM [inhibitor, partial curve, poor fit]"
same,Potency,[11],active: 29.8 µM [middle of 4 runs]
same,Potency,[7],active: 61.1 µM [middle of 4 runs]
same,Potency,[9],active: 60.3 µM [middle of 4 runs]
same,Potency,[12],active: 50.8 µM [middle of 4 runs]
same,Potency,[13],active: 43.6 µM [middle of 4 runs]
Clc1cccc2ccccc12,Potency,[1],inactive
same,Potency,[2],"inconclusive: 1.51 µM [inhibitor, single point]"
same,Potency,[14],"inconclusive: 12 µM [activator, full curve]"
same,Potency,[15],inactive
CC(C)C#N,Potency,[1],inactive
same,Potency,[6],inactive
NNC(=O)c1cccnc1,Potency,[16],"inconclusive: 61.3 µM [inhibitor, single point]"
same,Potency,[12],inactive
CC(COc1ccc(Oc2ccccc2)cc1)Oc1ccccn1 (stereo unspecified),Potency,[16],"inconclusive: 27.3 µM [inhibitor, partial curve, poor fit]"
same,Potency,[15],"inconclusive: 17.2 µM [falling, full curve]"
same,Potency,[12],"inconclusive: 27.3 µM [rising, partial curve]"
Cc1cc(C)nc(Nc2ccccc2)n1,Potency,[16],"inconclusive: 34.4 µM [inhibitor, partial curve]"
same,Potency,[6],inactive
same,"activity change, negative = inhibition",[15],inconclusive: -31.4%
same,Potency,[12],inactive
O=C(c1ccccc1)C(Cl)Cl,Potency,[1],"inconclusive: 30.6 µM [rising, partial curve]"
same,Potency,[2],active: 30.6 µM
same,Potency,[3],"inconclusive: 61.1 µM [inhibitor, partial curve, poor fit]"
same,Potency,[4],"inconclusive: 34.4 µM [cytotoxic, partial curve]"
same,Potency,[8],"inconclusive: 61.1 µM [falling, partial curve, poor fit]"
same,Potency,[15],"inconclusive: 15.4 µM [falling, full curve, poor fit]"
COC(=O)C(Br)CBr (stereo unspecified),Potency,[1],inactive
same,Potency,[2],inactive
same,Potency,[9],"inconclusive: 1.37 µM [cytotoxic, single point]"
[Hg+2].[I-].[I-],Potency,[1],active: 61.1 µM
same,Potency,[14],inconclusive: 15.4 µM [cytotoxic]
same,Potency,[3],"inconclusive: 15.4 µM [cytotoxic, full curve]"
same,Potency,[4],"inconclusive: 3.44 µM [cytotoxic, full curve]"
same,Potency,[6],active: 43.3 µM
same,Potency,[8],inconclusive: 6.86 µM [cytotoxic]
same,Potency,[15],"inconclusive: 13.7 µM [falling, full curve]"
same,Potency,[9],active: 6.11 µM
same,Potency,[12],active: 5.45 µM
same,Potency,[13],active: 49 µM
O=S(=O)(O)C(F)(F)C(F)(F)C(F)(F)C(F)(F)F,Potency,[16],inactive
same,"activity, negative = inhibition",[3],inconclusive: -34.5%
same,Potency,[17],active: 0.578 µM
same,"activity change, negative = inhibition",[15],inconclusive: 9.54% [phenotype inactive]
same,Potency,[12],"inconclusive: 0.0145 µM [rising, full curve, poor fit]"
CC(C)NC(C)C,Potency,[16],"inconclusive: 30.1 µM [inhibitor, partial curve]"
same,Potency,[5],"inconclusive: 13.3 µM [rising, full curve]"
same,Potency,[15],inactive
CC(=O)[O-].CC(=O)[O-].[Hg+2],Potency,[1],active: 61.1 µM
same,Potency,[5],active: 3.06 µM
same,Potency,[7],active: 21.7 µM
same,Potency,[15],"inconclusive: 8.63 µM [falling, full curve, poor fit]"
same,Potency,[9],active: 1.37 µM
same,Potency,[12],active: 3.44 µM
same,Potency,[13],active: 13.8 µM
